Hit rate of the full screen: of about 310,000 compounds, about 14,000 (4.5%) showed an effect of 50% or more. Effects have a minus sign here. The list shows a part of the results.

Consider 44 molecules from article PMC4336329 (PLoS ONE, 2015).
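Further: peak tail current of the secondary pulse compared with the same well before compound.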

This assay deals with human ether-à-go-go-related gene (hERG) potassium channel (human, UniProt Q12809). The assay can be described thus: primary screen, population patch clamp on CHO cells stably expressing hERG.
Sequence of human ether-à-go-go-related gene (hERG) potassium channel (Q12809 whole entry, looked up): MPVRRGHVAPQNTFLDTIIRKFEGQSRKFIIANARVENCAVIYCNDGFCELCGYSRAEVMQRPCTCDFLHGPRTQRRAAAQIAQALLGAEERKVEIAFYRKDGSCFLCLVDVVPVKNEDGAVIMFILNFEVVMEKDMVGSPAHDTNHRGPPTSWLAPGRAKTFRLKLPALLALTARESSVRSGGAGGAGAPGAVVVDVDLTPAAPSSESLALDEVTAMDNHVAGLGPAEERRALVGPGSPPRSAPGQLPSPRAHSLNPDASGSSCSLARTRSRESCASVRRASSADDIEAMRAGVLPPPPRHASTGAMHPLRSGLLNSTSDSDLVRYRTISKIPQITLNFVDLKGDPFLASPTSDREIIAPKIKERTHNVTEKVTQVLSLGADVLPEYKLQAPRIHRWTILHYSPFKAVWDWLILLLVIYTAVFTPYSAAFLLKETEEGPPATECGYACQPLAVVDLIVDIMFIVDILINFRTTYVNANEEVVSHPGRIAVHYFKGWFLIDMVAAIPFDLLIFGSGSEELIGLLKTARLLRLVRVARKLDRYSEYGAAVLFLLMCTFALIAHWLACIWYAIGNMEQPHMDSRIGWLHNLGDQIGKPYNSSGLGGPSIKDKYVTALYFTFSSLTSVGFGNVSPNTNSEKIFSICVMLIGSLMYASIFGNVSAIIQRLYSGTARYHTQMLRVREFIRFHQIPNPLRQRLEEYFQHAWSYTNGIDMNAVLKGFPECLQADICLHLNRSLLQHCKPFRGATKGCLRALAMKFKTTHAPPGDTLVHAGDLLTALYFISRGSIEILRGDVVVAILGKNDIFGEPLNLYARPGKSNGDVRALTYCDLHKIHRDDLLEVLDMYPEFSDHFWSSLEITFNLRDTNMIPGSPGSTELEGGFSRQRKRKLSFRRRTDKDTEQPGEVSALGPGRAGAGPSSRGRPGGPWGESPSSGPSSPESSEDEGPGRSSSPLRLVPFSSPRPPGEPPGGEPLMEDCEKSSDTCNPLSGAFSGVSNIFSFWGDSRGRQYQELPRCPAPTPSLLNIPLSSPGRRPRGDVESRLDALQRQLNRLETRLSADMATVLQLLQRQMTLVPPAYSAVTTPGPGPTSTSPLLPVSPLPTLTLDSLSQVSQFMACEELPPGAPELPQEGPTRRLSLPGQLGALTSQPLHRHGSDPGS
`O=C(COC(=O)c1ccccc1C(=O)N1CCN(c2ccccc2)CC1)NCc1ccccc1`: the “hERG current change (%, negative = inhibition) at 10uM” value is -58%. As for `N#Cc1c(NC(=O)CN2CCN(S(=O)(=O)c3ccc4c(c3)OCCO4)CC2)sc2c1CCC2`, the “hERG current change (%, negative = inhibition) at 10uM” value was determined as 7.11%. Take `COc1ccc(NC(=S)Nc2cccc3cnccc23)cc1`: the “hERG current change (%, negative = inhibition) at 10uM” value was -21.2%. `CCCC(=O)Nc1nc2ccc(NC(=O)c3cccnc3)cc2s1`: the “hERG current change (%, negative = inhibition) at 10uM” value was -1.66%.

Consider `O=C(NNC(=O)c1ccccc1O)c1ccc(S(=O)(=O)Nc2ccccc2)cc1`, for which the “hERG current change (%, negative = inhibition) at 10uM” value is given as 6.6%. In the case of `O=C(COCC(=O)Nc1cccc(C(F)(F)F)c1)Nc1cccc(C(F)(F)F)c1`, the “hERG current change (%, negative = inhibition) at 10uM” value stood at 38.3%. For the molecule `Cc1ccc(C(=O)Nc2nnc(-c3ccncc3)s2)o1`, the “hERG current change (%, negative = inhibition) at 10uM” value is listed as 3.9%. Turning to `Cc1onc(-c2ccccc2Cl)c1C(=O)N1CCc2ccccc2C1`, the “hERG current change (%, negative = inhibition) at 10uM” value was -18.2%. Regarding `Cc1cc(F)ccc1S(=O)(=O)Nc1ccccc1C(=O)NCc1ccccn1`, the “hERG current change (%, negative = inhibition) at 10uM” value is -7.43%. Next, `O=C(C1CCCO1)N1CCN(C(=S)Nc2cccc(Cl)c2)CC1` (centres unmarked): -8.74%; `CCc1ccc(C(=O)N/N=C/c2ccc(Cl)cc2Cl)nc1`: -5.86%; `O=C(COC(=O)c1ccccc1)Nc1ccc(Cl)cn1`: 18%. As for `CCOC(=O)CSc1nc(C)c2cccc(C)c2n1`, the figure is -3.05%; as for `Cc1ccc(NC(=O)[C@@H]2CCCN2S(=O)(=O)c2ccccc2C(F)(F)F)cc1S(=O)(=O)N1CCOCC1`, -21.4%. Next, `Clc1ccc(Cn2ncc3c(N4CCCCC4)ncnc32)cc1`: -14.4%; `CCS(=O)(=O)C1=NSC2=NC(=O)/C(=C\c3ccc(OC(=O)c4ccco4)cc3)C(=N)N21`: 15%. Regarding `COc1cc2c(=O)n(CCC(=O)NCC3CCCO3)c(=O)n(CC(=O)Nc3ccc(F)cc3)c2cc1OC` (centres unmarked), the “hERG current change (%, negative = inhibition) at 10uM” value is -16.1%.

For `COc1ccc(N2CCN(c3cc(=O)n(Cc4ccc(F)cc4)c(=O)[nH]3)CC2)cc1`, the “hERG current change (%, negative = inhibition) at 10uM” value is on record as -26%. As for `Cc1ccc(NC(C)c2cc(Cl)ccc2O)cc1` (centres unmarked), the figure is 18.5%; as for `Cc1cc(C)n(C(=O)c2cccc(S(=O)(=O)N3CCCC3)c2)n1`, 6.46%. For the molecule `O=C(CC1NCCNC1=O)Nc1cc(Cl)cc(Cl)c1` (centres unmarked), the “hERG current change (%, negative = inhibition) at 10uM” value was determined as 6.48%.

Take `COc1ccc(C(=O)Oc2coc(CSc3nnc(NC(=O)c4cccs4)s3)cc2=O)cc1`: the “hERG current change (%, negative = inhibition) at 10uM” value was 24.2%.

On to `Cc1cc(NC(=O)CSc2nnc(-c3ccc(O)cc3)o2)no1`, for which the “hERG current change (%, negative = inhibition) at 10uM” value was -5.18%.

Regarding `CCCc1nc2n[nH]c(N)c2c2c1CCCC2`, the “hERG current change (%, negative = inhibition) at 10uM” value amounted to 4.12%. Turning to `CCOC(=O)c1c(C)c(C(=O)NCc2ccc3c(c2)OCO3)c(C)n1C`, the “hERG current change (%, negative = inhibition) at 10uM” value was -8.33%.

Turning to `Cc1cc(C)cc(OCC(=O)N/N=C/c2ccccn2)c1`, the “hERG current change (%, negative = inhibition) at 10uM” value is -15.9%. As to `COc1ccc(C(=O)N2CCCC(C(=O)O)C2)c2ccccc12` (centres unmarked), the “hERG current change (%, negative = inhibition) at 10uM” value came out at 23.5%.

In the case of `COc1cc(C(=O)NCc2cc3ccccc3n2C)cc(OC)c1OC`, the “hERG current change (%, negative = inhibition) at 10uM” value was 10.5%. Take `CCCc1cc(C(=O)N2CCCN(C)CC2)cs1`: the “hERG current change (%, negative = inhibition) at 10uM” value is recorded as 0.455%. Turning to `COc1ccc(CNC(=O)COC(=O)CC2CC3CCC2C3)cc1OC` (centres unmarked), the “hERG current change (%, negative = inhibition) at 10uM” value is -4.38%.

As to `Cc1ccc(Nc2c(-c3ccccc3O)nc3cnccn23)cc1`, the “hERG current change (%, negative = inhibition) at 10uM” value was 3.86%.

For the molecule `Cc1ccc2nc(NCc3ccccc3)c(C=NCc3cccnc3)c(=O)n2c1`, the “hERG current change (%, negative = inhibition) at 10uM” value is 3.39%. Regarding `CC(c1ccccc1F)n1cc(C(=O)Nc2ccc3nc[nH]c3c2)nn1` (centres unmarked), the “hERG current change (%, negative = inhibition) at 10uM” value turned out to be 4.74%. Regarding `CCOc1ccc(N(Cc2nnc3n2CCCCC3)C(=O)Nc2cccc(C)c2)cc1`, the “hERG current change (%, negative = inhibition) at 10uM” value is recorded as -24.2%.

As to `Cc1nc2cc(-c3cccc(F)c3)nn2c(C)c1CCC(=O)N1CCC2(CC1)OCCO2`, the “hERG current change (%, negative = inhibition) at 10uM” value is recorded as -37.5%. Next, `CCCN(C(=O)c1cc(S(=O)(=O)N2CCCCCC2)ccc1OC)C1CCS(=O)(=O)C1` (centres unmarked): -15%; `Clc1ccc2nc(N3CCN(c4ccccc4)CC3)sc2c1`: 12.7%. For the molecule `O=C(NNC(=S)Nc1ccccc1)C1CC1`, the “hERG current change (%, negative = inhibition) at 10uM” value was -6.92%.

As for `Cc1ccc(C)c(N(C)C(=O)c2coc(=O)c3ccccc23)c1`, the “hERG current change (%, negative = inhibition) at 10uM” value is reported as -9.29%. As to `COc1ccc(N2CCC(CNC(=O)Nc3cccc(OC)c3)C2)cc1` (centres unmarked), the “hERG current change (%, negative = inhibition) at 10uM” value is on record as -15.7%. With `CN(C)/C=C(\C#N)C(=O)c1cccnc1Oc1cccc(F)c1`, the “hERG current change (%, negative = inhibition) at 10uM” value is on record as -2.68%.

Turning to `O=C(Cn1cnc2ccccc2c1=O)NCCC(=O)N1CCN(Cc2ccccc2)CC1`, the “hERG current change (%, negative = inhibition) at 10uM” value is recorded as 11.2%. As for `CN(C)C1(CNC(=O)C2CCN(S(=O)(=O)c3ccccc3C(F)(F)F)CC2)CCCCC1`, the figure is -29.8%; as for `CCSc1ccccc1C(=O)Nc1ccc2c(c1)OCO2`, 59%.
